Test results: the supplement of paper PMC10441789
The list shows a part of the results. Antibody binding of pooled human sera (four to six donors per pool; dilution not stated) to peptides of the Trypanosoma cruzi antigen TSSA on microarrays. Quantile-normalised fluorescence in arbitrary units, mean of duplicate arrays; higher = more binding. No active / inactive call. The uninfected pools are read here as the healthy donors of the same country. The strongest signals lie near the top of the scale (about 60,000).

Legend:
Assay in all cases: antibody binding signal (normalised fluorescence) (arbitrary fluorescence units); higher = stronger serum antibody binding to peptide
[1] = tested on: pooled sera of chronic Chagas disease patients, Argentina
Protocol: (§1)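 Microarray of 15-residue peptides over residues 30-55 of Trypanosoma cruzi TSSAII, each with 1 to 10 substitutions at naturally variable positions, probed with one serum pool per country.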

[2] = tested on: pooled sera of chronic Chagas disease patients, Bolivia
Protocol: as §1

[3] = tested on: pooled sera of chronic Chagas disease patients, Brazil
Protocol: as §1

[4] = tested on: pooled sera of chronic Chagas disease patients, Colombia
Protocol: as §1

[5] = tested on: pooled sera of chronic Chagas disease patients, Mexico
Protocol: as §1

[6] = tested on: pooled sera of chronic Chagas disease patients, USA
Protocol: as §1

[7] = tested on: pooled sera of uninfected people, Argentina
Protocol: as §1

[8] = tested on: pooled sera of uninfected people, Bolivia
Protocol: as §1

[9] = tested on: pooled sera of uninfected people, Brazil
Protocol: as §1

[10] = tested on: pooled sera of uninfected people, Colombia
Protocol: as §1

[11] = tested on: pooled sera of uninfected people, Mexico
Protocol: as §1

[12] = tested on: pooled sera of uninfected people, USA
Protocol: as §1

| Sequence | antibody binding signal [1] | antibody binding signal [2] | antibody binding signal [3] | antibody binding signal [4] | antibody binding signal [5] | antibody binding signal [6] | antibody binding signal [7] | antibody binding signal [8] | antibody binding signal [9] | antibody binding signal [10] | antibody binding signal [11] | antibody binding signal [12] |
| --- | --- | --- | --- | --- | --- | --- | --- | --- | --- | --- | --- | --- |
| PSGTEKKTAAGGTPS | 9090 | 803 | 2500 | 15600 | 8550 | 6140 | 360 | 244 | 525 | 350 | 542 | 534 |
| PPSGKDNKAATGETP | 3760 | 4710 | 5230 | 453 | 7850 | 11300 | 354 | 838 | 232 | 310 | 131 | 185 |
| TDNKTAAGEAPSPPG | 415 | 446 | 5410 | 190 | 218 | 6930 | 138 | 357 | 274 | 151 | 113 | 139 |
| TPPSGKENKTAAGEA | 22100 | 10200 | 4300 | 385 | 2490 | 2210 | 1240 | 1120 | 464 | 883 | 197 | 261 |
| SGTDNKTATGETPSP | 810 | 2500 | 42200 | 296 | 167 | 7180 | 131 | 576 | 1010 | 137 | 180 | 696 |
| TEKKPAAGGTPSQPG | 1030 | 200 | 639 | 6640 | 476 | 1860 | 276 | 192 | 1710 | 221 | 495 | 1390 |
| SGTDKKPAAGETPSP | 325 | 4910 | 26900 | 10200 | 924 | 2750 | 131 | 258 | 168 | 470 | 2850 | 447 |
| GTDNKPAAGEAPSQP | 10700 | 27800 | 44900 | 1100 | 226 | 17700 | 133 | 628 | 335 | 117 | 318 | 151 |
| KDKKAATGGTPSPPG | 341 | 247 | 157 | 414 | 304 | 364 | 150 | 78.9 | 165 | 231 | 59.4 | 77.4 |
| DKKPAAGGTPSPSGA | 652 | 199 | 309 | 5530 | 308 | 1220 | 219 | 138 | 1490 | 196 | 93.6 | 222 |
| TDNKPATGGTPSQPG | 861 | 893 | 17700 | 498 | 401 | 532 | 234 | 620 | 689 | 318 | 511 | 152 |
| PPSGTDKKPATGEAP | 45800 | 46000 | 46600 | 9280 | 23200 | 39900 | 1210 | 875 | 616 | 580 | 4430 | 395 |
| GTENKAATGGAPSPP | 37700 | 1660 | 4250 | 1700 | 2490 | 3460 | 327 | 377 | 165 | 266 | 189 | 133 |
| PSGTDNKAAAGGTPS | 15200 | 3260 | 42200 | 2900 | 2060 | 1590 | 211 | 665 | 2720 | 467 | 336 | 267 |
| TPPSGTDKKAATGGT | 18400 | 3020 | 27700 | 3210 | 38500 | 1770 | 421 | 132 | 948 | 691 | 918 | 257 |
| KTAAGETPSQSGASS | 148 | 2030 | 2270 | 147 | 596 | 192 | 221 | 354 | 167 | 162 | 343 | 175 |
| TPPSGTDKKTATGEA | 18300 | 15100 | 25500 | 3760 | 33400 | 1770 | 217 | 168 | 501 | 200 | 706 | 130 |
| TDNKTATGGTPSPPG | 294 | 854 | 506 | 390 | 287 | 487 | 242 | 217 | 390 | 343 | 167 | 133 |
| TENKPAAGGTPSPPG | 45500 | 752 | 1700 | 1090 | 648 | 304 | 248 | 452 | 683 | 541 | 214 | 238 |
| SGKEKKTAAGGAPSP | 2430 | 625 | 1950 | 6540 | 4360 | 4510 | 164 | 108 | 104 | 116 | 132 | 120 |
| KDKKAAAGEAPSQSG | 210 | 1150 | 1570 | 191 | 307 | 7600 | 118 | 87.2 | 94.2 | 104 | 89.8 | 141 |
| GTDKKAATGETPSPS | 1440 | 1710 | 10700 | 2420 | 598 | 11200 | 499 | 311 | 226 | 524 | 536 | 2610 |
| GKDNKPATGGAPSQS | 940 | 770 | 2650 | 919 | 1370 | 2640 | 389 | 963 | 127 | 143 | 124 | 127 |

| Sequence | antibody binding signal [1] | antibody binding signal [2] | antibody binding signal [3] | antibody binding signal [4] | antibody binding signal [5] | antibody binding signal [6] | antibody binding signal [7] | antibody binding signal [8] | antibody binding signal [9] | antibody binding signal [10] | antibody binding signal [11] | antibody binding signal [12] |
| --- | --- | --- | --- | --- | --- | --- | --- | --- | --- | --- | --- | --- |
| KDNKTAAGGTPSPSG | 833 | 259 | 209 | 3930 | 239 | 1340 | 260 | 237 | 341 | 203 | 282 | 138 |
| TDKKTATGGTPSQSG | 1000 | 422 | 578 | 3090 | 571 | 1460 | 413 | 106 | 284 | 719 | 269 | 134 |
| TPPSGTEKKPATGET | 46600 | 37600 | 40300 | 350 | 14400 | 7270 | 1040 | 451 | 879 | 254 | 2300 | 1760 |
| EKKPAAGEAPSQSGA | 1630 | 6130 | 19800 | 511 | 312 | 15000 | 114 | 1120 | 161 | 107 | 212 | 987 |
| GKDNKPATGETPSQS | 36900 | 26100 | 37000 | 2500 | 3700 | 26100 | 576 | 829 | 250 | 304 | 1740 | 136 |
| PSGTDKKTAAGETPS | 1900 | 747 | 3860 | 3710 | 1330 | 3020 | 216 | 694 | 412 | 1420 | 436 | 345 |
| GKENKAATGETPSPS | 14700 | 2070 | 24900 | 18600 | 16500 | 24600 | 576 | 256 | 114 | 201 | 304 | 2610 |
| SGTEKKPAAGEAPSQ | 4510 | 12200 | 15700 | 1100 | 1180 | 14600 | 93.5 | 662 | 477 | 94.9 | 281 | 465 |
| KEKKTAAGETPSPSG | 159 | 194 | 178 | 260 | 210 | 1320 | 127 | 115 | 101 | 204 | 90.1 | 456 |
| PSGTDKKTATGGTPS | 3440 | 546 | 3710 | 5490 | 1820 | 2490 | 294 | 393 | 200 | 389 | 169 | 262 |
| TEKKAATGETPSQSG | 2460 | 1790 | 14400 | 320 | 415 | 10300 | 419 | 242 | 283 | 596 | 299 | 214 |
| TSSTPPSGTDNKTAT | 30400 | 44300 | 48800 | 1010 | 11400 | 20700 | 994 | 706 | 1740 | 194 | 216 | 288 |
| EKKAAAGGTPSPPGA | 581 | 229 | 251 | 5490 | 428 | 1920 | 141 | 776 | 1640 | 153 | 95.2 | 709 |
| KEKKPAAGGTPSQPG | 183 | 205 | 232 | 1280 | 136 | 287 | 185 | 83.1 | 455 | 119 | 118 | 359 |
| NKAATGEAPSPSGAS | 13200 | 40900 | 35800 | 224 | 536 | 27300 | 458 | 769 | 573 | 348 | 224 | 908 |
| GTENKAAAGETPSPP | 38700 | 492 | 10300 | 988 | 1330 | 3190 | 152 | 392 | 103 | 149 | 198 | 474 |
| PSGTDKKAATGGAPS | 2890 | 264 | 4610 | 4320 | 2360 | 1900 | 386 | 510 | 200 | 430 | 600 | 221 |
| KTAAGETPSPSGASS | 159 | 186 | 428 | 190 | 3350 | 1120 | 180 | 226 | 170 | 141 | 169 | 494 |
| TISTPPSGKEKKTAT | 14300 | 247 | 242 | 373 | 15700 | 652 | 343 | 502 | 112 | 184 | 120 | 150 |
| EKKAATGGTPSQPGA | 960 | 820 | 1050 | 2570 | 1450 | 1330 | 446 | 724 | 903 | 1100 | 600 | 733 |
| TPPSGTEKKPATGGA | 43700 | 4220 | 39600 | 857 | 19500 | 6770 | 1660 | 1820 | 513 | 208 | 284 | 1120 |
| SGTDNKAATGGTPSQ | 818 | 988 | 46100 | 983 | 622 | 212 | 282 | 636 | 1930 | 204 | 204 | 226 |
| SGKDNKAAAGEAPSP | 1030 | 335 | 13700 | 1880 | 1110 | 11200 | 302 | 317 | 140 | 563 | 83.5 | 116 |
